Measured values reported in the supplement of paper PMC11741623.
The other results are listed elsewhere or left out. Interaction screen of human proteins with wild-type SARS-CoV-2 proteins by split-DHFR complementation in yeast, 1 µg/mL methotrexate. Value = fitness of the pair (three or more lineages) minus that of the viral protein without a human partner, on a scale set by negative (0) and fused positive (1) controls, mean of up to three cultures; higher = more likely to interact. Active = false discovery rate below 0.05 (one-sided t-test) in at least one culture. Nearly all pairs are not hits, and differences among them are mostly noise (correlation between cultures about 0.3); most hits were seen in one culture only. Human sequences are the Swiss-Prot entries looked up by gene name; the clone may be another isoform. NSP2 values were corrected by the authors for a growth advantage. Listed are human proteins with a hit and a random twelfth of the others.

B1: C3orf35, Q8IVJ8 (protein)
chain: MKTMATRKRCKLSRTGPEFENVIKRLLCARTFHTRIGGDLTHGIINRGRRANAEQMGLQGSAQHFNIFPLDLWTQGKKTEVQKREGTDSIPAAGRSGTANQPSIAPHRCLFSRGITALDGLKRGRGCNGAAHLVRGDAWKTKLGEPWVSIALALAGPGAILILELSWFLG
B2: DPEP1, P16444 (protein)
chain: MWSGWWLWPLVAVCTADFFRDEAERIMRDSPVIDGHNDLPWQLLDMFNNRLQDERANLTTLAGTHTNIPKLRAGFVGGQFWSVYTPCDTQNKDAVRRTLEQMDVVHRMCRMYPETFLYVTSSAGIRQAFREGKVASLIGVEGGHSIDSSLGVLRALYQLGMRYLTLTHSCNTPWADNWLVDTGDSEPQSQGLSPFGQRVVKELNRLGVLIDLAHVSVATMKATLQLSRAPVIFSHSSAYSVCASRRNVPDDVLRLVKQTDSLVMVNFYNNYISCTNKANLSQVADHLDHIKEVAGARAVGFGGDFDGVPRVPEGLEDVSKYPDLIAELLRRNWTEAEVKGALADNLLRVFEAVEQASNLTQAPEEEPIPLDQLGGSCRTHYGYSSGASSLHRHWGLLLASLAPLVLCLSLL
B3: FAM216B, Q8N7L0 (protein)
chain: MGQNWKRQQKLWNVPQLPFIRVPPSIYDTSLLKALNQGQQRYFYSIMRIYNSRPQWEALQTRYIHSLQHQQLLGYITQREALSYALVLRDSTKRASAKVAPQRTIPRKTSAMTRRCPSVLPVSVVLPRAQSKRRQVLRN

What follows are binders tested against SARS-CoV-2 M (assay: yeast fitness gain over the viral ORF with no human partner (scaled fitness); higher = more likely to interact).
Description: (§1)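 Split mouse DHFR complementation in pooled diploid yeast: human ORFeome clones carry one fragment and viral ORFs the other; barcoded lineages compete in 1 µg/mL methotrexate and fitness is read by barcode sequencing in up to three cultures.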
In the case of B1, the yeast fitness gain is reported as inactive: 0.0186. With B2 the yeast fitness gain was inactive: 0.0313. For B3, the yeast fitness gain was inactive: 0.0444.

These binders were tested against SARS-CoV-2 NSP1 in the same assay as above.
Description: as §1
With B1 the yeast fitness gain was inactive: -0.136. For B2, the yeast fitness gain was inactive: -0.0255.

Each binder was assayed against SARS-CoV-2 NSP10 in the same assay as above.
Description: as §1
In the case of B1, the yeast fitness gain is reported as inactive: -0.00578. For B2, the yeast fitness gain was inactive: 0.0238. With B3 the yeast fitness gain was inactive: 0.00816.

These binders were tested against SARS-CoV-2 NSP12 in the same assay as above.
Description: as §1
With B1 the yeast fitness gain was inactive: 0.0333. B2 was tested, and the yeast fitness gain was inactive: -0.00891. For B3, the yeast fitness gain was inactive: -0.0417.

The binders below were run against SARS-CoV-2 NSP13 in the same assay as above.
Description: as §1
With B1 the yeast fitness gain was inactive: -0.117. With B2 the yeast fitness gain was inactive: -0.0565. In the case of B3, the yeast fitness gain is reported as inactive: -0.00176.

Each binder was assayed against SARS-CoV-2 NSP15 in the same assay as above.
Description: as §1
B1 was tested, and the yeast fitness gain was inactive: -0.0499. B2 was tested, and the yeast fitness gain was inactive: 0.0243. In the case of B3, the yeast fitness gain is reported as inactive: -0.388.

What follows are binders tested against SARS-CoV-2 NSP2 in the same assay as above.
Description: as §1
With B1 the yeast fitness gain was inactive: -0.12. For B2, the yeast fitness gain was inactive: -0.167. For B3, the yeast fitness gain was inactive: -0.26.

These binders were tested against SARS-CoV-2 NSP5 in the same assay as above.
Description: as §1
With B1 the yeast fitness gain was inactive: -0.16. In the case of B2, the yeast fitness gain is reported as inactive: -0.0566. For B3, the yeast fitness gain was inactive: 0.00561.

What follows are binders tested against SARS-CoV-2 NSP6 in the same assay as above.
Description: as §1
With B1 the yeast fitness gain was inactive: -0.00239. With B2 the yeast fitness gain was inactive: -0.0433. In the case of B3, the yeast fitness gain is reported as inactive: 0.0181.

What follows are binders tested against SARS-CoV-2 NSP8 in the same assay as above.
Description: as §1
For B1, the yeast fitness gain was inactive: -0.0123. With B2 the yeast fitness gain was inactive: 0.0586.

What follows are binders tested against SARS-CoV-2 ORF10 in the same assay as above.
Description: as §1
With B1 the yeast fitness gain was inactive: 0.0446. In the case of B2, the yeast fitness gain is reported as inactive: -0.054. With B3 the yeast fitness gain was inactive: 0.0341.

What follows are binders tested against SARS-CoV-2 ORF3B in the same assay as above.
Description: as §1
For B1, the yeast fitness gain was inactive: -0.00587. In the case of B2, the yeast fitness gain is reported as inactive: 0.0204. With B3 the yeast fitness gain was inactive: -0.0141.

Each binder was assayed against SARS-CoV-2 ORF6 in the same assay as above.
Description: as §1
For B1, the yeast fitness gain was inactive: 0.0148. For B2, the yeast fitness gain was inactive: 0.0506. In the case of B3, the yeast fitness gain is reported as inactive: -0.125.

What follows are binders tested against SARS-CoV-2 ORF7A in the same assay as above.
Description: as §1
B1 was tested, and the yeast fitness gain was inactive: -0.0555. In the case of B2, the yeast fitness gain is reported as inactive: -0.0396. With B3 the yeast fitness gain was inactive: -0.0336.

These binders were tested against SARS-CoV-2 ORF7B in the same assay as above.
Description: as §1
For B1, the yeast fitness gain was inactive: -0.0722. In the case of B2, the yeast fitness gain is reported as inactive: 0.0897. In the case of B3, the yeast fitness gain is reported as inactive: -0.12.

The binders below were run against SARS-CoV-2 ORF8 in the same assay as above.
Description: as §1
For B1, the yeast fitness gain was inactive: -0.0775. B2 was tested, and the yeast fitness gain was inactive: 0.074. For B3, the yeast fitness gain was inactive: -0.184.

Each binder was assayed against SARS-CoV-2 ORF9B in the same assay as above.
Description: as §1
For B1, the yeast fitness gain was inactive: -0.0228. With B2 the yeast fitness gain was inactive: -0.0168. With B3 the yeast fitness gain was inactive: 0.0784.

The binders below were run against SARS-CoV-2 ORF9Bwu (the 73-codon ORF) in the same assay as above.
Description: as §1
With B1 the yeast fitness gain was inactive: 0.0177. For B2, the yeast fitness gain was inactive: -0.0651. For B3, the yeast fitness gain was inactive: -0.135.

What follows are binders tested against SARS-CoV-2 S in the same assay as above.
Description: as §1
With B1 the yeast fitness gain was inactive: 0.0436. B2 was tested, and the yeast fitness gain was inactive: 0.0157. In the case of B3, the yeast fitness gain is reported as inactive: -0.143.

These binders were tested against SARS-CoV-2 NSP14 in the same assay as above.
Description: as §1
B2 was tested, and the yeast fitness gain was inactive: -0.14. For B3, the yeast fitness gain was inactive: -0.116.

These binders were tested against SARS-CoV-2 NSP16 in the same assay as above.
Description: as §1
For B2, the yeast fitness gain was inactive: 0.0192.

What follows are binders tested against SARS-CoV-2 NSP7 in the same assay as above.
Description: as §1
In the case of B2, the yeast fitness gain is reported as inactive: -0.0448. B3 was tested, and the yeast fitness gain was inactive: -0.343.

The binders below were run against SARS-CoV-2 NSP9 in the same assay as above.
Description: as §1
In the case of B2, the yeast fitness gain is reported as inactive: 0.0388. With B3 the yeast fitness gain was inactive: 0.0267.

The binders below were run against SARS-CoV-2 ORF3A in the same assay as above.
Description: as §1
With B2 the yeast fitness gain was inactive: -0.111. In the case of B3, the yeast fitness gain is reported as inactive: 0.0873.

These binders were tested against SARS-CoV-2 N in the same assay as above.
Description: as §1
With B3 the yeast fitness gain was inactive: 0.0322.

What follows are binders tested against SARS-CoV-2 NSP4 in the same assay as above.
Description: as §1
With B3 the yeast fitness gain was inactive: 0.0935.
